# The source gives no read counts; variants with many changes may rest on few reads.
# B1: LINE1-mini (parent)
# chain: GGCAGAGCUCAACACAGCGUGGCAAAGUGGCUGUGGCUAGACUGCC
# Variants of: B1
# Assay: self-cleavage, relative activity (ratio to wild type); higher = more cleavage; in vitro, sequencing; the parent is a self-cleaving ribozyme
row,Variant,self-cleavage
1,GGCAGAGCUCAACACAGAGUGCCAAAGGGGCCGUGGCUAGACUGCG [C18A G22C U28G U32C C46G],0.06
2,GGCAGACCUCAACAAAGCGUGGCAAAGUGACUGUGGCUAGACUGCC [G7C C15A G30A],0.12
3,GGCAGAGCUCAACACAGCGUUGCAAAGUGGCUAUGGCUAGUCUGCC [G21U G33A A41U],0.03
4,GGCAGAGCUCCCUACAGCGUGGCAAAGUGACUGUGGCUAGACUGCC [A11C A12C C13U G30A],0.02
5,GGCAGAUCUCAACACCGCGUGGCAAAGUGGCUGUGGCUAGACUGCA [G7U A16C C46A],0.04
6,GGCAGAGAUCAACACAUCGUGGCAAAGUGCCUGUGGCCAGAUUGCC [C8A G17U G30C U38C C42U],0.05
7,GGCAGAGCUCACCAGAGCGUGGCAGAGUGGCUGUGGCUAGACUGCC [A12C C15G A25G],0.01
8,GGCAGAGCUCAACACAGCGUGCCAAAGUGGCUGUGGCUAGAAUACC [G22C C42A G44A],0.14
9,GGAAGAGCACAACACAGCGUUGAAAAGUGGCUGUGGCUAGACUGCG [C3A U9A G21U C23A C46G],0.89
10,CGCAGAGCUCCCCACAGCGUGGCAAAGAGGCUGUGGCUAGACAGCC [G1C A11C A12C U28A U43A],0
11,CGCAGAGGACAACACAGUUUGGCAAAGUGGGUGUGGCUAGGCUGAC [G1C C8G U9A C18U G19U C31G A41G C45A],0.02
12,GGCAGAACUAAACAAAAUGUGGCAAAGUGGCUGUGGCUAGAAUGAC [G7A C10A C15A G17A C18U C42A C45A],0.03
13,UGCAGAGCUCAACACAGCGUGGCAAAGUGGCUGUGGCACGACUGCA [G1U U38A A39C C46A],0.33
14,GGCAUAGGUCAACACAGCGUGGUAAAGUGGCUGUGGCUAGACUGCC [G5U C8G C23U],0.16
15,GGCAGAGCUCAACACAACCUGGCAAAGUGGCUGUGGCUAGACGGCC [G17A G19C U43G],0
16,GACAGUGCUAAACGCACCGUGGCAAGGUGGCUGUGGCUAGACCGCC [G2A A6U C10A A14G G17C A26G U43C],0.02
17,GGGAGAGUCGAACACAGCGUGGCAAAGUGGUUGCGGCUAGACUGCC [C3G C8U U9C C10G C31U U34C],0.03
18,GUCAGAGCUCAACACAGCGUGGCAAAGUGGCUGUGACUAGAGUACC [G2U G36A C42G G44A],0.01
19,GGCAGGGCUCAACACAGCUUGGCAAAGUGGCUGUGGCUAGACAGCC [A6G G19U U43A],0.11

row,Variant,self-cleavage
1,GGCAGAGCUCAACAAAGCGUGGCAAAGUGGUUGUGUCUAGACUGCC [C15A C31U G36U],0.01
2,GGCAGAACUCAACACAGCGUGGCAAAGUAGCUGUGGUUAGACUGCC [G7A G29A C37U],0.01
3,GGCAGAUCUCAACCCAGCGUGGCAAAGUGGCUGUGGCUAGGCUGCC [G7U A14C A41G],0.08
4,GGCAGACCUCAACACAGCGUAGCAACGUCGCUGUGGCUAUACUUCC [G7C G21A A26C G29C G40U G44U],0.1
5,GGCAGAGCUCAACACAGCGUGGCAAAGUGGCUGUAGCUUUACUGCC [G35A A39U G40U],0.1
6,GGUAGAGCUAAACACAGCGUGGCAAAGUGGCUAUGGCUAGACUGCC [C3U C10A G33A],0.05
7,GGCAUAGCUCGACACAGCGUGGCAUAGUGGCGGUGGCUAGACUGCC [G5U A11G A25U U32G],0.02
8,GACAGAGCUCAAUACAGCGUGGCAAAGUGGCUGAGGCUAGACUGCC [G2A C13U U34A],0.38
9,GGCAGAGCCUAACACAGCGUGACAAAGUGGCUGUGGCUAGAAUGCC [U9C C10U G22A C42A],0.01
10,GGCAUGGCUCAACACAGCGUGGCAAAGUGGCUGUUGCUAGACUGCC [G5U A6G G35U],0.1
11,GGCAGAGCUCAACACAGCGUGGCGGAUCGGCGGUUGCUAGACUGCC [A24G A25G G27U U28C U32G G35U],0.15
12,GGUAGAGCUCAACACAGGGUGGCAAAGUUGCUGUGGCUAGACUACC [C3U C18G G29U G44A],1.37
13,GGUAGAUCUCAUCACAGCGUGGCCACGUGGCUGUGGCUAGACUGCC [C3U G7U A12U A24C A26C],0.04
14,GGCAAAGCUCAACAUAGCGUGGCACAGUAGCUCUGGCUAGACUGCC [G5A C15U A25C G29A G33C],0.03
15,GGCAGAGCUCAACACAACGAUGCAAAGUGGCUGUGGGUAGUAUGCC [G17A U20A G21U C37G A41U C42A],0.05
16,GGCAGAGCUCAACACCGCGUAGCAAAGUGGCUGUGGCUACACUGAC [A16C G21A G40C C45A],0.03
17,GGCAGAACUCAACACAGCGUGGCAAAAUGGCUGAGGCUAUACUGCC [G7A G27A U34A G40U],0.02
18,GGCUGGGCUCAACACAGGGUGGCAAAGUGGCUUUGGUUAGACUGCC [A4U A6G C18G G33U C37U],0.06
19,GGCAGAGCUCAACAAAGCGUGGCAAAAUGGCUCUGGCUAGACUGCC [C15A G27A G33C],0.04

row,Variant,self-cleavage
1,GGCGGAGCUCAACACAGCGUGACAAAAUGGCUGUGGCGAGACUGCC [A4G G22A G27A U38G],0.03
2,GGCAGAGCUCCACACAGCGUGGCAAAGAGACUGUGGCUAGACUGCC [A11C U28A G30A],0.02
3,GUCAGAGCUCAACACAGCCUGGCAAGGUGGCUGUGGCUAGACUGCC [G2U G19C A26G],0.03
4,GGCAGAGCUCAACUCAGCAUGGCAUAGUGGCUGUGGCUAGACUGCC [A14U G19A A25U],0.18
5,UGCGGAGCUCAUCACAUCGUGGCAAAGUGGCAGUGGCUAGACUGCC [G1U A4G A12U G17U U32A],0.01
6,GGCAGAGCUCAACACACCGUGGCAAAGUGGUGGUAGCUAGACUGCC [G17C C31U U32G G35A],0.06
7,GGCAGAGCUCAAUACAGCGUGGAUAAGUGGCUGUGGCUAGACAGCC [C13U C23A A24U U43A],0.03
8,GGCAGAGCUCAACACAGCGUGGCAAACGGGCUUUGGCUAGCCUGCC [G27C U28G G33U A41C],0.03
9,GGCACAGCUCAACACACCGCGGCAUAGUGGCUGUUGCUAGACUGCC [G5C G17C U20C A25U G35U],0.14
10,GGCAGAGCUCAACACAGCGUGCCAAAGUGCCUGUGGCUAGAGUGCC [G22C G30C C42G],0.1
11,GGCAGAUCUUACAACAGCGUGGCAAAGUGGCUGUGGCUAGGCUGCC [G7U C10U A12C C13A A41G],0
12,GGCGGAGCUCAACACAGCGUGGCAGAGUGGCUGUGGCUAGACUGAC [A4G A25G C45A],0.12
13,GGCAGAUCUCAACACAGCGUGGCAAAGUGGCUCUGGCUGGACUGCC [G7U G33C A39G],0.04
14,GGCAGAGCUCAACAAAGCGUGGAAAAGUGGUUUUGCCUAGACUGCC [C15A C23A C31U G33U G36C],0.02
15,GGCAGAGAUCAACACAGCGUGGAAAAGUGGCUGUGGCUAGUCUGCC [C8A C23A A41U],0.57
16,GGCAGAGCUCAGCACAGCGUGGCAAACUGGCUGUCGCUAGACUGCC [A12G G27C G35C],0.02
17,GGCAGAGCUCAACACAGAGUGGCAAAGUGGCUGUGGAUAGACCGCC [C18A C37A U43C],0
18,GGCCGAGCUAAACACAGCGUGGCAAAGAGGCUGUGGCUAGACUGCC [A4C C10A U28A],0.01

# Source: the RNAGym collection of RNA variant scans (doi:10.7554/elife.90254)
